# Measured values published in the supplement of paper PMC11741623.
# This is one part of the list. Interaction screen of human proteins with wild-type SARS-CoV-2 proteins by split-DHFR complementation in yeast, 1 µg/mL methotrexate. Value = fitness of the pair (three or more lineages) minus that of the viral protein without a human partner, on a scale set by negative (0) and fused positive (1) controls, mean of up to three cultures; higher = more likely to interact. Active = false discovery rate below 0.05 (one-sided t-test) in at least one culture. Nearly all pairs are not hits, and differences among them are mostly noise (correlation between cultures about 0.3); most hits were seen in one culture only. Human sequences are the Swiss-Prot entries looked up by gene name; the clone may be another isoform. NSP2 values were corrected by the authors for a growth advantage. Listed are human proteins with a hit and a random twelfth of the others.
# B1: TADA2A, O75478 (protein)
# chain: MDRLGPFSNDPSDKPPCRGCSSYLMEPYIKCAECGPPPFFLCLQCFTRGFEYKKHQSDHTYEIMTSDFPVLDPSWTAQEEMALLEAVMDCGFGNWQDVANQMCTKTKEECEKHYMKHFINNPLFASTLLNLKQAEEAKTADTAIPFHSTDDPPRPTFDSLLSRDMAGYMPARADFIEEFDNYAEWDLRDIDFVEDDSDILHALKMAVVDIYHSRLKERQRRKKIIRDHGLINLRKFQLMERRYPKEVQDLYETMRRFARIVGPVEHDKFIESHALEFELRREIKRLQEYRTAGITNFCSARTYDHLKKTREEERLKRTMLSEVLQYIQDSSACQQWLRRQADIDSGLSPSIPMASNSGRRSAPPLNLTGLPGTEKLNEKEKELCQMVRLVPGAYLEYKSALLNECNKQGGLRLAQARALIKIDVNKTRKIYDFLIREGYITKG
# B2: PANK3, Q9H999 (protein)
# chain: MKIKDAKKPSFPWFGMDIGGTLVKLSYFEPIDITAEEEQEEVESLKSIRKYLTSNVAYGSTGIRDVHLELKDLTLFGRRGNLHFIRFPTQDLPTFIQMGRDKNFSTLQTVLCATGGGAYKFEKDFRTIGNLHLHKLDELDCLVKGLLYIDSVSFNGQAECYYFANASEPERCQKMPFNLDDPYPLLVVNIGSGVSILAVHSKDNYKRVTGTSLGGGTFLGLCSLLTGCESFEEALEMASKGDSTQADKLVRDIYGGDYERFGLPGWAVASSFGNMIYKEKRESVSKEDLARATLVTITNNIGSVARMCAVNEKINRVVFVGNFLRVNTLSMKLLAYALDYWSKGQLKALFLEHEGYFGAVGALLGLPNFS
# B3: HSD17B14, Q9BPX1 (protein)
# chain: MATGTRYAGKVVVVTGGGRGIGAGIVRAFVNSGARVVICDKDESGGRALEQELPGAVFILCDVTQEDDVKTLVSETIRRFGRLDCVVNNAGHHPPPQRPEETSAQGFRQLLELNLLGTYTLTKLALPYLRKSQGNVINISSLVGAIGQAQAVPYVATKGAVTAMTKALALDESPYGVRVNCISPGNIWTPLWEELAALMPDPRATIREGMLAQPLGRMGQPAEVGAAAVFLASEANFCTGIELLVTGGAELGYGCKASRSTPVDAPDIPS
# B4: SIGLEC5, O15389 (protein)
# chain: MLPLLLLPLLWGGSLQEKPVYELQVQKSVTVQEGLCVLVPCSFSYPWRSWYSSPPLYVYWFRDGEIPYYAEVVATNNPDRRVKPETQGRFRLLGDVQKKNCSLSIGDARMEDTGSYFFRVERGRDVKYSYQQNKLNLEVTALIEKPDIHFLEPLESGRPTRLSCSLPGSCEAGPPLTFSWTGNALSPLDPETTRSSELTLTPRPEDHGTNLTCQMKRQGAQVTTERTVQLNVSYAPQTITIFRNGIALEILQNTSYLPVLEGQALRLLCDAPSNPPAHLSWFQGSPALNATPISNTGILELRRVRSAEEGGFTCRAQHPLGFLQIFLNLSVYSLPQLLGPSCSWEAEGLHCRCSFRARPAPSLCWRLEEKPLEGNSSQGSFKVNSSSAGPWANSSLILHGGLSSDLKVSCKAWNIYGSQSGSVLLLQGRSNLGTGVVPAALGGAGVMALLCICLCLIFFLIVKARRKQAAGRPEKMDDEDPIMGTITSGSRKKPWPDSPGDQASPPGDAPPLEEQKELHYASLSFSEMKSREPKDQEAPSTTEYSEIKTSK
# B5: S100A8, P05109 (protein)
# chain: MLTELEKALNSIIDVYHKYSLIKGNFHAVYRDDLKKLLETECPQYIRKKGADVWFKELDINTDGAVNFQEFLILVIKMGVAAHKKSHEESHKE
# Molecular target: SARS-CoV-2 NSP10
# Experiment: yeast fitness gain over the viral ORF with no human partner (scaled fitness); higher = more likely to interact
# Procedure: (§1)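 Split mouse DHFR complementation in pooled diploid yeast: human ORFeome clones carry one fragment and viral ORFs the other; barcoded lineages compete in 1 µg/mL methotrexate and fitness is read by barcode sequencing in up to three cultures.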
row,Binder,yeast fitness gain
1,B1,inactive: -0.297
2,B2,inactive: -0.138
3,B3,inactive: -0.128
4,B4,inactive: -0.257
5,B5,inactive: -0.0674

# Molecular target: SARS-CoV-2 NSP12
# Experiment: as above
# Procedure: as §1
row,Binder,yeast fitness gain
1,B1,inactive: -0.00571
2,B2,inactive: 0.00513
3,B4,inactive: -0.105
4,B5,inactive: 0.091

# Molecular target: SARS-CoV-2 NSP13
# Experiment: as above
# Procedure: as §1
row,Binder,yeast fitness gain
1,B1,inactive: -0.201
2,B2,inactive: -0.0118
3,B3,inactive: 0.0831
4,B4,inactive: 0.0666
5,B5,inactive: -0.0173

# Molecular target: SARS-CoV-2 NSP2
# Experiment: as above
# Procedure: as §1
row,Binder,yeast fitness gain
1,B1,inactive: -0.0508
2,B2,inactive: -0.103
3,B5,inactive: -0.112

# Molecular target: SARS-CoV-2 ORF3B
# Experiment: as above
# Procedure: as §1
row,Binder,yeast fitness gain
1,B1,inactive: -0.0705
2,B2,inactive: 0.0212
3,B5,inactive: -0.0627

# Molecular target: SARS-CoV-2 ORF9B
# Experiment: as above
# Procedure: as §1
row,Binder,yeast fitness gain
1,B1,inactive: -0.0111
2,B2,inactive: -0.0487
3,B3,inactive: 0.0197
4,B4,inactive: -0.0446
5,B5,inactive: -0.0874

# Molecular target: SARS-CoV-2 NSP15
# Experiment: as above
# Procedure: as §1
row,Binder,yeast fitness gain
1,B2,inactive: 0.0342

# Molecular target: SARS-CoV-2 ORF10
# Experiment: as above
# Procedure: as §1
row,Binder,yeast fitness gain
1,B2,inactive: 0.0588
2,B3,inactive: -0.0519
3,B4,inactive: 0.0618

# Molecular target: SARS-CoV-2 ORF6
# Experiment: as above
# Procedure: as §1
row,Binder,yeast fitness gain
1,B2,inactive: 0.0146
2,B4,inactive: 0.0268
3,B5,inactive: 0.0281

# Molecular target: SARS-CoV-2 ORF7A
# Experiment: as above
# Procedure: as §1
row,Binder,yeast fitness gain
1,B2,inactive: 0.052

# Molecular target: SARS-CoV-2 ORF7B
# Experiment: as above
# Procedure: as §1
row,Binder,yeast fitness gain
1,B2,inactive: 0.00443
2,B5,inactive: -0.0182

# Molecular target: SARS-CoV-2 ORF8
# Experiment: as above
# Procedure: as §1
row,Binder,yeast fitness gain
1,B2,inactive: -0.121
2,B3,inactive: -0.0981
3,B5,inactive: 0.0829

# Molecular target: SARS-CoV-2 S
# Experiment: as above
# Procedure: as §1
row,Binder,yeast fitness gain
1,B2,inactive: 0.0881
2,B5,inactive: -0.0973

# Molecular target: SARS-CoV-2 NSP8
# Experiment: as above
# Procedure: as §1
row,Binder,yeast fitness gain
1,B3,inactive: -0.00829
2,B4,inactive: -0.0719
3,B5,inactive: 0.0239

# Molecular target: SARS-CoV-2 NSP7
# Experiment: as above
# Procedure: as §1
row,Binder,yeast fitness gain
1,B4,inactive: -0.16
2,B5,inactive: 0.0519

# Molecular target: SARS-CoV-2 NSP16
# Experiment: as above
# Procedure: as §1
row,Binder,yeast fitness gain
1,B5,inactive: 0.0149

# Molecular target: SARS-CoV-2 NSP5
# Experiment: as above
# Procedure: as §1
row,Binder,yeast fitness gain
1,B5,inactive: -0.12

# Molecular target: SARS-CoV-2 NSP6
# Experiment: as above
# Procedure: as §1
row,Binder,yeast fitness gain
1,B5,inactive: 0.083

# Molecular target: SARS-CoV-2 ORF9Bwu (the 73-codon ORF)
# Experiment: as above
# Procedure: as §1
row,Binder,yeast fitness gain
1,B5,inactive: -0.0462
